Data published in paper PMC9911399, “Two distinct binding modes provide the RNA-binding protein RbFox with extraordinary sequence specificity”.
Substitutions are numbered along the chain they refer to; changes in the protein carry UniProt numbers. This is one part of the list.

T1: RBFOX1 RRM (Homo sapiens, UniProt Q9NWB1 109-208)
T1 sequence: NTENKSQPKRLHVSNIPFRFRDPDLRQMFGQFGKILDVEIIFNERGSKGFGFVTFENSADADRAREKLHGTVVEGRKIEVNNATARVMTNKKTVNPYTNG

B1: GCUACGG (DNA:RNA)
RNA: GGGAGACCGGAAUUCAGAUUGUCCGCUACGGUUAAAUCCCGUCGUAGCCACCA
DNA 1: CAATCTGAATTCCGGTCTCCC
DNA 2: TGGTGGCTACGACGGGATT
B2: CUAAAGC (DNA:RNA)
RNA: B1 RNA with G25C, C26U, U27A, C29A, G31C
DNA 1: CAATCTGAATTCCGGTCTCCC
DNA 2: TGGTGGCTACGACGGGATT
B3: CCGCCUC (DNA:RNA)
RNA: B1 RNA with G25C, U27G, A28C, G30U, G31C
DNA 1: CAATCTGAATTCCGGTCTCCC
DNA 2: TGGTGGCTACGACGGGATT
B4: AACGCGG (DNA:RNA)
RNA: B1 RNA with G25A, C26A, U27C, A28G
DNA 1: CAATCTGAATTCCGGTCTCCC
DNA 2: TGGTGGCTACGACGGGATT
B5: UCCGAGC (DNA:RNA)
RNA: B1 RNA with G25U, U27C, A28G, C29A, G31C
DNA 1: CAATCTGAATTCCGGTCTCCC
DNA 2: TGGTGGCTACGACGGGATT
B6: ACGUCAA (DNA:RNA)
RNA: B1 RNA with G25A, U27G, A28U, G30A, G31A
DNA 1: CAATCTGAATTCCGGTCTCCC
DNA 2: TGGTGGCTACGACGGGATT
B7: UAUGAGU (DNA:RNA)
RNA: B1 RNA with G25U, C26A, A28G, C29A, G31U
DNA 1: CAATCTGAATTCCGGTCTCCC
DNA 2: TGGTGGCTACGACGGGATT
B8: CGGUACU (DNA:RNA)
RNA: GGGAGACCGGAAUUCAGAUUGUCCCGGUACUUUAAAUCCCGUCGUAGCCACCA
DNA 1: CAATCTGAATTCCGGTCTCCC
DNA 2: TGGTGGCTACGACGGGATT
B9: CCUCGAA (DNA:RNA)
RNA: B1 RNA with G25C, A28C, C29G, G30A, G31A
DNA 1: CAATCTGAATTCCGGTCTCCC
DNA 2: TGGTGGCTACGACGGGATT
B10: CAUUAAG (DNA:RNA)
RNA: B8 RNA with G26A, G27U, C30A, U31G
DNA 1: CAATCTGAATTCCGGTCTCCC
DNA 2: TGGTGGCTACGACGGGATT
B11: AUAAUCG (DNA:RNA)
RNA: B1 RNA with G25A, C26U, U27A, C29U, G30C
DNA 1: CAATCTGAATTCCGGTCTCCC
DNA 2: TGGTGGCTACGACGGGATT
B12: AGGUACU (DNA:RNA)
RNA: B8 RNA with C25A
DNA 1: CAATCTGAATTCCGGTCTCCC
DNA 2: TGGTGGCTACGACGGGATT
B13: AAGCCGC (DNA:RNA)
RNA: B1 RNA with G25A, C26A, U27G, A28C, G31C
DNA 1: CAATCTGAATTCCGGTCTCCC
DNA 2: TGGTGGCTACGACGGGATT
B14: AAAUAAG (DNA:RNA)
RNA: B8 RNA with C25A, G26A, G27A, C30A, U31G
DNA 1: CAATCTGAATTCCGGTCTCCC
DNA 2: TGGTGGCTACGACGGGATT
B15: GUCUCUC (DNA:RNA)
RNA: B1 RNA with C26U, U27C, A28U, G30U, G31C
DNA 1: CAATCTGAATTCCGGTCTCCC
DNA 2: TGGTGGCTACGACGGGATT
B16: UCUUGCC (DNA:RNA)
RNA: B8 RNA with C25U, G26C, G27U, A29G, U31C
DNA 1: CAATCTGAATTCCGGTCTCCC
DNA 2: TGGTGGCTACGACGGGATT
B17: CUUCUAC (DNA:RNA)
RNA: B8 RNA with G26U, G27U, U28C, A29U, C30A, U31C
DNA 1: CAATCTGAATTCCGGTCTCCC
DNA 2: TGGTGGCTACGACGGGATT
B18: CACAAGG (DNA:RNA)
RNA: B1 RNA with G25C, C26A, U27C, C29A
DNA 1: CAATCTGAATTCCGGTCTCCC
DNA 2: TGGTGGCTACGACGGGATT
B19: GGAGGAA (DNA:RNA)
RNA: B8 RNA with C25G, G27A, U28G, A29G, C30A, U31A
DNA 1: CAATCTGAATTCCGGTCTCCC
DNA 2: TGGTGGCTACGACGGGATT
B20: AGUGUUA (DNA:RNA)
RNA: B8 RNA with C25A, G27U, U28G, A29U, C30U, U31A
DNA 1: CAATCTGAATTCCGGTCTCCC
DNA 2: TGGTGGCTACGACGGGATT
B21: UGCGACG (DNA:RNA)
RNA: B8 RNA with C25U, G27C, U28G, U31G
DNA 1: CAATCTGAATTCCGGTCTCCC
DNA 2: TGGTGGCTACGACGGGATT
B22: ACAGUCU (DNA:RNA)
RNA: B8 RNA with C25A, G26C, G27A, U28G, A29U
DNA 1: CAATCTGAATTCCGGTCTCCC
DNA 2: TGGTGGCTACGACGGGATT
B23: GUUUUAU (DNA:RNA)
RNA: B8 RNA with C25G, G26U, G27U, A29U, C30A
DNA 1: CAATCTGAATTCCGGTCTCCC
DNA 2: TGGTGGCTACGACGGGATT
B24: GAUCUCG (DNA:RNA)
RNA: B1 RNA with C26A, A28C, C29U, G30C
DNA 1: CAATCTGAATTCCGGTCTCCC
DNA 2: TGGTGGCTACGACGGGATT
B25: UAUCUAU (DNA:RNA)
RNA: B8 RNA with C25U, G26A, G27U, U28C, A29U, C30A
DNA 1: CAATCTGAATTCCGGTCTCCC
DNA 2: TGGTGGCTACGACGGGATT
B26: CCCACUU (DNA:RNA)
RNA: B1 RNA with G25C, U27C, G30U, G31U
DNA 1: CAATCTGAATTCCGGTCTCCC
DNA 2: TGGTGGCTACGACGGGATT
B27: GGAAGGG (DNA:RNA)
RNA: B1 RNA with C26G, U27A, C29G
DNA 1: CAATCTGAATTCCGGTCTCCC
DNA 2: TGGTGGCTACGACGGGATT
B28: GCGUUUU (DNA:RNA)
RNA: B8 RNA with C25G, G26C, A29U, C30U
DNA 1: CAATCTGAATTCCGGTCTCCC
DNA 2: TGGTGGCTACGACGGGATT
B29: GAGGUGU (DNA:RNA)
RNA: B8 RNA with C25G, G26A, U28G, A29U, C30G
DNA 1: CAATCTGAATTCCGGTCTCCC
DNA 2: TGGTGGCTACGACGGGATT
B30: UUUGAAC (DNA:RNA)
RNA: B8 RNA with C25U, G26U, G27U, U28G, C30A, U31C
DNA 1: CAATCTGAATTCCGGTCTCCC
DNA 2: TGGTGGCTACGACGGGATT
B31: ACUGACU (DNA:RNA)
RNA: B8 RNA with C25A, G26C, G27U, U28G
DNA 1: CAATCTGAATTCCGGTCTCCC
DNA 2: TGGTGGCTACGACGGGATT

Molecular target: T1, RBFOX1 RRM
Experiment: EMSA; HiTS-Eq, 1 nM pool, 10 min; buffer printed only for the single-RNA assays: 10 mM Tris pH 7.5, 150 mM NaCl, 3.4 mM EDTA, 0.001% NP-40, 30 C
Details: tags: His6 N-terminal (pET28a); label: 5' 32P
Summary of the method: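 Relative association constants, normalised to the cognate motif, were derived by comparing read counts of each RNA species with those of the control reaction. The RNA sequenced was the free fraction, separated by 8% native PAGE after a 10 min equilibration in 50 µL of 1 nM 5′-radiolabelled RNA (7 randomized nucleotides) with increasing concentrations of purified wild-type or mutant RbFox RRM.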

Point of comparison: B5, binding signal 0.00748 KA relative to UGCAUGU. Against it:
- B1 — higher, 0.00939 KA relative to UGCAUGU
- B2 — lower, 0.00566 KA relative to UGCAUGU
- B3 — higher, 0.0225 KA relative to UGCAUGU
- B4 — higher, 0.00805 KA relative to UGCAUGU
- B6 — lower, 0.000907 KA relative to UGCAUGU
- B7 — higher, 0.0133 KA relative to UGCAUGU
- B8 — higher, 0.00991 KA relative to UGCAUGU
- B9 — higher, 0.00977 KA relative to UGCAUGU
- B10 — higher, 0.00833 KA relative to UGCAUGU
- B11 — lower, 0.00196 KA relative to UGCAUGU
- B12 — lower, 0.00602 KA relative to UGCAUGU
- B13 — lower, 0.00379 KA relative to UGCAUGU
- B14 — lower, 0.00417 KA relative to UGCAUGU
- B15 — lower, 0.00726 KA relative to UGCAUGU
- B16 — higher, 0.0152 KA relative to UGCAUGU
- B17 — lower, 0.00182 KA relative to UGCAUGU
- B18 — lower, 0.00364 KA relative to UGCAUGU
- B19 — higher, 0.0141 KA relative to UGCAUGU
- B20 — higher, 0.00766 KA relative to UGCAUGU
- B21 — higher, 0.0138 KA relative to UGCAUGU
- B22 — lower, 0.00331 KA relative to UGCAUGU
- B23 — higher, 0.0114 KA relative to UGCAUGU
- B24 — lower, 0.00674 KA relative to UGCAUGU
- B25 — lower, 0.00571 KA relative to UGCAUGU
- B26 — lower, 0.00255 KA relative to UGCAUGU
- B27 — higher, 0.00767 KA relative to UGCAUGU
- B28 — higher, 0.0112 KA relative to UGCAUGU
- B29 — higher, 0.021 KA relative to UGCAUGU
- B30 — higher, 0.0127 KA relative to UGCAUGU
- B31 — lower, 0.00677 KA relative to UGCAUGU
